Test results taken from PubChem BioAssay AID900 (National Center for Advancing Translational Sciences (NCATS), 2007).
Out of some 75,000 compounds screened, about 20 (0.03%) were called active. Inconclusive means that the source gave no clear call. Such entries were picked first, then a sample of the others. Calls follow the shape of the dose curve; as a rule, active = well fitted inhibition curve with a large enough effect; inconclusive = small, poorly fitted or top-dose-only effect; inactive = flat fitted curve, though single readings scatter. Potencies of inconclusive entries are left out as doubtful fits.

molecular target: Caspase-1 (Homo sapiens) (UniProt P29466); assay: qHTS Assay for Allosteric/Competitive Inhibitors of Caspase-1; conditions: Caspase-1 enzyme, Ac-WEHD-AFC fluorogenic rate; activity change, negative = inhibition: at 57.5 µM (top of the series) unless noted;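 as to activity change, negative = inhibition: plate controls were vehicle for no effect and no substrate for full effect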
Potency is read from the fitted curve at half-maximal effect; tags tell the direction and shape of the fitted curve or compound fluorescence and quenching.

Row | Structure (SMILES) | activity change, negative = inhibition | Potency
1 | Cc1nn(Cc2ccccc2)c(Cl)c1C(=O)OCc1nnc(-c2ccc(Cl)cc2)o1 | inactive: -5.32% | –
2 | C[C@@](N)(Cc1ccc(O)c(O)c1)C(=O)O | – | inactive
3 | O=C1c2ccccc2NC2CCCCC12 (stereo not given) | inactive: -3.03% | –
4 | N#Cc1c(-c2ccco2)cc(-c2cccnc2)nc1N | inactive: 0.115% | –
5 | CC(C)c1[nH]nc2c1C1(CCN(Cc3ccccc3)CC1)C(C#N)=C(N)O2 | – | inconclusive [inhibitor, single point]
6 | Cc1cccc(-n2c(O)c(C=Nc3ccc4c(c3)OCO4)c3ccccc3c2=O)n1 | – | inconclusive [inhibitor, partial curve]
7 | c1ccc(-c2noc(CSc3nnc(Cc4cccs4)n3-c3ccccc3)n2)cc1 | – | inconclusive [inhibitor, partial curve]
8 | CCn1c2ccccc2c2cc(C3C(C#N)=C(C)NC(C)=C3C#N)ccc21 | – | inconclusive [inhibitor, partial curve]
9 | Nc1ccc(N)c(Cl)c1 | – | inconclusive [inhibitor, full curve]
10 | COc1cccc(Cn2c(=O)cnc3cnc(Nc4cccc(OC)c4)nc32)c1 | – | inconclusive [inhibitor, single point]
11 | CCOC(=O)c1c(NC(=O)c2cccs2)sc2c1CCN(C(=O)OCC)C2 | – | inconclusive [inhibitor, partial curve]
12 | CCN1C(=O)c2cccc3c(NC(=O)c4ccc(S(=O)(=O)N(C)C)cc4)ccc1c23 | – | inconclusive [inhibitor, single point]
13 | CCN(CC)CCCN(C(=O)c1cccs1)c1nc(-c2ccc(OC)cc2)cs1 | inactive: -0.911% | –
14 | CCOC(=O)c1c(NC(=O)c2cccs2)sc(C)c1CC | – | inconclusive [inhibitor, single point]
15 | COc1ccc(-c2cc(C(F)F)n3ncc(C(=O)N4CCSCC4)c3n2)cc1 | – | inconclusive [inhibitor, partial curve]
16 | Nc1c(C(=O)NC2CC2)c2nc3ccccc3nc2n1-c1ccc2c(c1)OCO2 | – | inconclusive [inhibitor, partial curve]
17 | CCCC1C(c2ccco2)NC(c2ccco2)CC1(C)O (stereo not given) | inactive: -1.9% | –
18 | c1ccc(C(c2nnnn2C2CCCC2)N2CCCCCC2)nc1 (stereo not given) | inconclusive: -16.5% [inhibitor] | –
19 | Cc1ccc(S(=O)(=O)C(C#N)c2nc3ccccc3nc2N2CCCC2)cc1 (stereo not given) | – | inconclusive [inhibitor, partial curve]
20 | COc1ccc(NC(=O)CSc2nc(NS(=O)(=O)c3ccccc3)cc(=O)[nH]2)cc1 | inconclusive: -15.5% [inhibitor] | –
21 | CCOc1cccc(=O)c2c(C)n(CC3CCCO3)c(C)c12 (stereo not given) | inconclusive: -16% [inhibitor] | –
22 | COc1cc(CNC2CCCCCC2)cc(OC)c1OC | inconclusive: -16.5% [inhibitor] | –

Row | Structure (SMILES) | activity change, negative = inhibition | Potency
23 | COC(=O)[C@@H]1C2CC3c4[nH]c5cc(OC)ccc5c4CCN3CC2C[C@H](OC(=O)c2cc(OC)c(OC)c(OC)c2)C1OC (stereo not given in full) | – | inconclusive [inhibitor, partial curve]
24 | Nc1nc(-c2ccco2)c(-c2ccco2)s1 | – | inconclusive [inhibitor, partial curve]
25 | CCOC(=O)Cn1c(=O)oc2cc(S(=O)(=O)Nc3ccc(N(CC)CC)cc3C)ccc21 | inactive: -4.9% | –
26 | O=C1C(Cl)=C(N2CCCCC2)C(=O)N1c1ccccc1Cl | – | inconclusive [inhibitor, partial curve]
27 | Cc1ccc(N2C(=O)c3ccc(N)cc3C2=O)cc1C | – | inconclusive [inhibitor, partial curve]
28 | Nc1nc2c(C(=O)NCc3cccs3)nnn2c2cccc(Cl)c12 | inactive: -2.04% [at 11.5 µM] | –
29 | COC(=O)[C@@]1(Cc2ccc(F)cc2)[C@@H]2C(=CC(=O)[C@H]2CC(=O)C(=O)N(C)C)CN1C(=O)c1ccccc1 | – | inconclusive [inhibitor, single point]
30 | CCOc1cc(-c2noc(CCC(=O)Nc3cccnc3)n2)ccc1OC | – | inconclusive [inhibitor, single point]
31 | COCCCN=C(c1ccco1)n1c(=S)nc(-c2ccco2)n(CCCOC)c1=S | – | inconclusive [inhibitor, single point]
32 | O=C(c1cc(C(F)(F)F)cc(C(F)(F)F)c1)N1CCC[C@@]2(CCN(Cc3nccs3)C2)C1 | – | inconclusive [inhibitor, partial curve]
33 | CCC[C@@H]1C[C@@]1(CCC)C(NC(=O)c1ccc(-c2ccccc2)cc1)c1cccc(Cl)c1 (stereo not given in full) | inactive: -0.862% | –
34 | COc1ccc(CNc2nc(-c3ccoc3)nc3ccccc23)c(OC)c1 | inconclusive: -15.1% [inhibitor] | –
35 | CCc1c2c(nc3cccc(SC)c13)COC2 | – | inconclusive [inhibitor, partial curve]
36 | Cc1nc2cnc(N3CCNCC3)nc2n(-c2ccccc2)c1=O | – | inconclusive [inhibitor, partial curve]
37 | Nc1ccn([C@@H]2O[C@@H](CO)[C@@H](O)[C@H]2O)c(=O)n1 | inactive: 4.13% | –
38 | CCN(CC)c1nc(N)c2c(N)nc3c(c2c1C#N)CC(c1ccccc1)O3 (stereo not given) | – | inconclusive [inhibitor, single point]
39 | O=C(O)c1c(Br)c(Br)c(Br)c(Br)c1C1c2ccc(O)cc2Oc2cc(O)ccc21 | – | inconclusive [inhibitor, single point]
40 | COc1cccc(NC(=O)CN2CCN(S(=O)(=O)c3ccc(C(C)C)cc3)CC2)c1 | inactive: -3.16% | –
41 | Nc1c(C(=O)c2ccccc2)oc2ccc(Br)cc12 | – | inconclusive [inhibitor, partial curve]
42 | Nc1ccc(N2CCCCCC2)cc1 | inconclusive: -17.9% [inhibitor] | –
43 | COCCCn1cnc2oc3nc4ccccc4nc3c2c1=O | inactive: -7.89% | –
44 | C=C(C)COc1ccc(-c2nc(N)ncc2Oc2ccccc2OC)c(O)c1 | – | inconclusive [inhibitor, single point]

Row | Structure (SMILES) | activity change, negative = inhibition | Potency
45 | CC(=O)N1CN(Cc2ccccn2)Cc2c1sc1c2CCCC1 | – | inconclusive [inhibitor, single point]
46 | Cc1ccc(-c2cc(C(F)F)n3ncc(C(=O)NCc4ccco4)c3n2)cc1 | – | inconclusive [inhibitor, full curve]
47 | O=C(/C=C\Nc1ccccn1)c1ccc(Cl)cc1 | – | inconclusive [inhibitor, partial curve]
48 | CCOc1cccc(=O)c2c(C)n(Cc3ccco3)c(C)c12 | – | inconclusive [inhibitor, partial curve]
49 | COc1nc(-c2ccc(C)cc2)ccc1-c1noc(-c2ccco2)n1 | inconclusive: -17.8% [inhibitor] | –
50 | CC(=O)Nc1ccc(Oc2cc(C#N)c(C#N)cc2N2CCCCCC2)cc1 | – | inconclusive [inhibitor, single point]
51 | COc1ccccc1CC(Cc1nc2ccccc2[nH]1)c1nc2ccccc2[nH]1 (stereo not given) | inactive: -3.73% | –
52 | COc1ccc(CNc2ccnc(-c3ccc(N(C)C)cc3)n2)c(OC)c1 | inconclusive: -28.5% [fluorescent] | –
53 | CCC(c1nnnn1CCc1ccccc1)N(Cc1ccco1)Cc1cc2cc(C)cc(C)c2[nH]c1=O (stereo not given) | – | inconclusive [inhibitor, single point]
54 | CC(=O)Nc1ccc(N/C=C/C(=O)c2ccc(C)o2)cc1 | – | inconclusive [inhibitor, partial curve]
55 | O=C(OCC1OC(OC(=O)c2cc(O)c(O)c(OC(=O)c3cc(O)c(O)c(O)c3)c2)[C@@H](OC(=O)c2cc(O)c(O)c(OC(=O)c3cc(O)c(O)c(O)c3)c2)C(OC(=O)c2cc(O)c(O)c(OC(=O)c3cc(O)c(O)c(O)c3)c2)C1OC(=O)c1cc(O)c(O)c(OC(=O)c2cc(O)c(O)c(O)c2)c1)c1cc(O)c(O)c(OC(=O)c2cc(O)c(O)c(O)c2)c1 (stereo not given in full) | inconclusive: -15.3% [inhibitor] | –
56 | Cc1cccn2c(=O)c3cc(C(=O)N4CCN(C(=O)c5ccco5)CC4)n(C)c3nc12 | – | inconclusive [inhibitor, single point]
57 | O=c1c2cc(O)c(O)cc2oc2cc(O)c(C3OC(CO)C(O)C(O)C3O)c(O)c12 (stereo not given) | – | inconclusive [inhibitor, partial curve]
58 | Cc1cc2ccccc2n1CCNC(=O)C1CCCC1 | – | inconclusive [inhibitor, single point]
59 | CN(CCc1ccccn1)C(=O)c1nn2c(C(F)(F)F)cc(-c3ccco3)nc2c1Cl | – | inconclusive [inhibitor, partial curve]
60 | CCC(c1nnc(SCC(=O)Nc2ccc(C(=O)Nc3ccccc3OC)cc2)o1)N(C)C (stereo not given) | inactive: 0.884% | –
61 | CNc1ncnc2ccc(-c3ccccc3OC)cc12 | inactive: 3.34% | –
62 | CC(=O)N1C(=O)C(=C2C=C(C)OC(C)=C2)c2ccccc21 | – | inconclusive [inhibitor, full curve]
63 | Fc1ccc(-c2cc3nc(-c4ccccc4)cc(N4CCN(CCN5CCOCC5)CC4)n3n2)cc1 | – | inconclusive [inhibitor, single point]
64 | CO[C@H]1COC(=O)[C@H](C)NC(=O)C/C=C\[C@@H](C)[C@@H](NS(=O)(=O)c2ccc(C)cc2)COC(=O)C/C=C\[C@@H]1C | inactive: -2.34% [at 11.5 µM] | –
65 | CN(C)c1ccc(-c2nc(N(C)Cc3ccco3)c3ccccc3n2)cc1 | – | inconclusive [inhibitor, single point]
